In all, about 3,200 compounds went through this assay and about 300 (9.4%) showed activity. This is a selection; strong and weak results do not stand in their true shares.

In this assay the test system is A673/TR/shEF. Description: cell viability (LOESS-normalised, relative to median of negative controls) (log2 ratio); higher = more viable cells (less compound effect), active = hit call of the paper (over 3 MAD below the median). As to conditions: treatment time: 72 h. Put shortly: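 Doxycycline, present or absent from 24 h before compounds, was used to induce EWS-FLI1 shRNA knockdown in A673/TR/shEF Ewing sarcoma cells at 1,500 per well in 384-well plates. Cells then received library compounds at two or more concentrations, or DMSO controls, for three days. Viability was measured by CellTiter-Glo luminescence on an Envision reader, and per-plate LOESS correction, division by the negative-control median and log2 transformation followed.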

[1] abbreviates: 0.25 µM, library screen: screen1, EWS-FLI1 expression: high (no doxycycline).
[2] abbreviates: 0.25 µM, library screen: screen1, EWS-FLI1 expression: low (doxycycline-induced shRNA knockdown).
[3] abbreviates: 2.5 µM, library screen: screen1, EWS-FLI1 expression: high (no doxycycline).
Setting [4] is: 2.5 µM, library screen: screen1, EWS-FLI1 expression: low (doxycycline-induced shRNA knockdown).
The mark [5] stands for this setting: 0.25 µM, library screen: screen2, EWS-FLI1 expression: high (no doxycycline).
Setting [6] is: 0.25 µM, library screen: screen2, EWS-FLI1 expression: low (doxycycline-induced shRNA knockdown).
The mark [7] stands for this setting: 2.5 µM, library screen: screen2, EWS-FLI1 expression: high (no doxycycline).
[8] abbreviates: 2.5 µM, library screen: screen2, EWS-FLI1 expression: low (doxycycline-induced shRNA knockdown).

Turning to `CC(=O)OCC(=O)[C@@]1(O)CC[C@H]2[C@@H]3CCC4=CC(=O)CC[C@]4(C)[C@H]3[C@@H](O)C[C@@]21C`, the “cell viability (log2)” value by setting is: under setting [1], inactive: 0.0589; under setting [2], inactive: -0.00319; under setting [3], inactive: 0.113; under setting [4], inactive: -0.145.

Turning to `CC(C)c1c(C(=O)Nc2ccccc2)c(-c2ccccc2)c(-c2ccc(F)cc2)n1CC[C@@H](O)C[C@@H](O)CC(=O)O`, the “cell viability (log2)” value runs as follows: under setting [1], inactive: 0.091; under setting [2], inactive: 0.0242; under setting [3], inactive: 0.147; under setting [4], inactive: -0.0132.

Consider `Cc1ccc(C(=O)NCCSc2ccccn2)cc1`, for which the “cell viability (log2)” value under setting [1] was inactive: 0.109, the “cell viability (log2)” value under setting [2] is inactive: 0.00816, the “cell viability (log2)” value under setting [3] was inactive: 0.117 and the “cell viability (log2)” value under setting [4] was inactive: -0.0564.

Regarding `CCCCN(CCCC)CCCOC(=O)c1ccc(N)cc1`, the “cell viability (log2)” value is inactive: 0.0783 under setting [1], inactive: 0.0927 under setting [2], inactive: 0.106 under setting [3] and inactive: -0.00308 under setting [4].

As for `Cc1ccc(C(=O)c2ccc(CC(=O)O)n2C)cc1`, the “cell viability (log2)” value under setting [1] is inactive: 0.104, the “cell viability (log2)” value under setting [2] was inactive: 0.125, the “cell viability (log2)” value under setting [3] is inactive: 0.166 and the “cell viability (log2)” value under setting [4] is inactive: 0.245.

For `O=C(O)CN1C(=O)c2cccc3cccc(c23)C1=O`, the “cell viability (log2)” value runs as follows: under setting [1], inactive: 0.105; under setting [2], inactive: 0.11; under setting [3], inactive: 0.117; under setting [4], inactive: 0.138.

`CC(=O)OCC(=O)[C@@]1(O)CC[C@H]2[C@@H]3CCC4=CC(=O)CC[C@]4(C)[C@@]3(F)[C@@H](O)C[C@@]21C`: the “cell viability (log2)” value was inactive: 0.0516 under setting [1], inactive: -0.128 under setting [2], inactive: 0.181 under setting [3] and inactive: -0.216 under setting [4].

For the molecule `O=C(O)CCCCCCCC(=O)O`, the “cell viability (log2)” value under setting [1] is inactive: 0.000753; the “cell viability (log2)” value under setting [2] was inactive: 0.0938; the “cell viability (log2)” value under setting [5] is active: -0.13; the “cell viability (log2)” value under setting [6] was inactive: 0.0952; the “cell viability (log2)” value under setting [3] is inactive: 0.149; the “cell viability (log2)” value under setting [4] was inactive: 0.152. Also, the “cell viability (log2)” value by setting is: under setting [7], inactive: 0.0755; under setting [8], inactive: 0.0904.

`CC12CCC3C(CC3(C)C)C(C)(CCC1=O)O2` (configuration not stated): the “cell viability (log2)” value reads like this: under setting [1], inactive: 0.0597; under setting [2], inactive: -0.06; under setting [3], inactive: 0.125; under setting [4], inactive: 0.0256.

Turning to `CC(C)c1cc(/C=C(\C#N)C(=O)NCCCc2ccccc2)cc(C(C)C)c1O`, the “cell viability (log2)” value under setting [3] is active: -0.147 and the “cell viability (log2)” value (25 µM, library screen: screen1, EWS-FLI1 expression: high (no doxycycline)) is active: -0.351.

Take `CC1(C)CCC(NC(=O)[C@@H](N)CCC(=O)O)CC1`: the “cell viability (log2)” value reads like this: under setting [5], inactive: 0.0918; under setting [6], inactive: 0.112; under setting [7], inactive: 0.151; under setting [8], inactive: 0.102.

For `O=C(O)C1CCNCC1`, the “cell viability (log2)” value reads like this: under setting [5], inactive: 0.0886; under setting [6], inactive: 0.119; under setting [7], inactive: 0.109; under setting [8], inactive: 0.143.

Regarding `CCn1cc(C(=O)O)c(=O)c2cc(F)c(N3CCNCC3)nc21`, the “cell viability (log2)” value by setting is: under setting [1], inactive: 0.0868; under setting [2], inactive: 0.172; under setting [3], inactive: 0.0894; under setting [4], inactive: 0.207.

Consider `CC1(C)CCC=[N+]1[O-]`, for which the “cell viability (log2)” value runs as follows: under setting [5], inactive: 0.21; under setting [6], inactive: 0.0951; under setting [7], inactive: 0.15; under setting [8], inactive: 0.0623.

For `CC(C(=O)O)c1cccc(Oc2ccccc2)c1` (configuration not stated), the “cell viability (log2)” value (0.103 µM, library screen: screen3, EWS-FLI1 expression: high (no doxycycline)) is inactive: 0.0391; the “cell viability (log2)” value (0.103 µM, library screen: screen3, EWS-FLI1 expression: low (doxycycline-induced shRNA knockdown)) was inactive: 0.0624; the “cell viability (log2)” value under setting [1] is inactive: 0.0482; the “cell viability (log2)” value under setting [2] was inactive: -0.0414; the “cell viability (log2)” value (0.308 µM, library screen: screen3, EWS-FLI1 expression: high (no doxycycline)) is inactive: 0.0175; the “cell viability (log2)” value (0.308 µM, library screen: screen3, EWS-FLI1 expression: low (doxycycline-induced shRNA knockdown)) was inactive: 0.00626. Further, the “cell viability (log2)” value is, setting by setting: (0.926 µM, library screen: screen3, EWS-FLI1 expression: high (no doxycycline)) inactive: -0.0113; (0.926 µM, library screen: screen3, EWS-FLI1 expression: low (doxycycline-induced shRNA knockdown)) inactive: 0.0467; under setting [3], inactive: 0.0813; under setting [4], inactive: 0.0314; (2.8 µM, library screen: screen3, EWS-FLI1 expression: high (no doxycycline)) inactive: -0.0127; (2.8 µM, library screen: screen3, EWS-FLI1 expression: low (doxycycline-induced shRNA knockdown)) inactive: 0.00407. Further, the “cell viability (log2)” value was inactive: -0.00977 (8.3 µM, library screen: screen3, EWS-FLI1 expression: high (no doxycycline)); inactive: 0.021 (8.3 µM, library screen: screen3, EWS-FLI1 expression: low (doxycycline-induced shRNA knockdown)); inactive: 0.017 (25 µM, library screen: screen3, EWS-FLI1 expression: high (no doxycycline)); inactive: -0.0553 (25 µM, library screen: screen3, EWS-FLI1 expression: low (doxycycline-induced shRNA knockdown)).

For the molecule `COc1ccccc1C=CC(=O)O`, the “cell viability (log2)” value by setting is: under setting [1], inactive: 0.0113; under setting [2], inactive: -0.0457; under setting [3], inactive: 0.102; under setting [4], inactive: 0.0515.

As to `Oc1ccc(C2CNCCc3c2cc(O)c(O)c3Cl)cc1` (configuration not stated), the “cell viability (log2)” value runs as follows: under setting [5], inactive: 0.0664; under setting [6], inactive: 0.116; under setting [7], inactive: 0.116; under setting [8], inactive: 0.122.

`COc1ccccc1-c1coc2cc(O)ccc2c1=O`: the “cell viability (log2)” value under setting [1] was inactive: 0.111, the “cell viability (log2)” value under setting [2] was inactive: 0.0685, the “cell viability (log2)” value under setting [3] was inactive: 0.111 and the “cell viability (log2)” value under setting [4] is inactive: -0.0147.

In the case of `O=C1OC(c2ccc(O)cc2)(c2ccc(O)cc2)c2ccccc21`, the “cell viability (log2)” value under setting [1] is inactive: 0.134, the “cell viability (log2)” value under setting [2] was inactive: -0.0327, the “cell viability (log2)” value under setting [3] was inactive: 0.253 and the “cell viability (log2)” value under setting [4] is inactive: 0.217.

As for `COc1cc(OC)c2c(=O)cc(-c3ccccc3)oc2c1`, the “cell viability (log2)” value by setting is: under setting [1], inactive: 0.103; under setting [2], inactive: 0.00884; under setting [3], inactive: 0.158; under setting [4], inactive: 0.121.

With `COC(=O)C[C@H]1C(C)(C)[C@@H](O)[C@@H]2CC3=C4C=C(OC)O[C@@H](c5ccoc5)[C@]4(C)CCC3[C@@]1(C)C2=O` (some centres not stated), the “cell viability (log2)” value runs as follows: under setting [1], inactive: 0.0415; under setting [2], inactive: 0.0871; under setting [3], inactive: 0.0987; under setting [4], inactive: 0.00724.

For the molecule `CCCCCCCCCCCCCCCC(=O)NCC(COP(=O)([O-])OCC[N+](C)(C)C)OCC` (configuration not stated), the “cell viability (log2)” value was inactive: 0.198 under setting [5], inactive: 0.0364 under setting [6], inactive: 0.0761 under setting [7] and inactive: -0.0192 under setting [8].
